According to patent US20250121087A1, “ANTIBODY-DRUG CONJUGATES COMPRISING ANTI-B7-H3 ANTIBODIES” (priority 2020, published 2025):

Tests used:
cynomolgus monkey B7-H3 = test: Biacore (SPR) binding kinetics, cynomolgus monkey B7-H3; details: analyte Cyno B7-H3, antibody as immobilized ligand
Experimental: (§1) The binding affinity of the purified anti-B7-H3 monoclonal antibodies was determined by BLI-based OCTET or SPR-based Biacore. Further the binding kinetics of the antibodies binding to human, cynomolgus monkey and mouse B7-H3 antigen are shown in Table 37.
(§2) A Biacore 8K (GE Life science) instrument was used to measure the binding kinetics about several B7-H3 variants (analyte) binding to various mAbs (ligands). Antibodies were captured onto the immobilized anti-human Fc antibody (GE Life science). Anti-Fc antibodies were immobilized to approximately 7,000 RU on CM5 sensor chip using a standard amine coupling method on both active cell and reference cell. For binding kinetic measurements, the HBS-EP+ was used for running buffer (10 mM Hepes, pH7.4, 150 mM NaCl, 3 mM EDTA, 0.05% polysorbate20). Anti-B7-H3 antibodies were diluted to 0.5 ug/mL in running buffer and injected for 110 s on active cells only. After capturing ligand, various B7-H3 antigens were analyzed for 120 s and the dissociation was monitored for 600 s at a flow rate of 30 ul/min. […] Kinetic information was calculated by fitting data to a 1:1 binding model using Biacore Insight Evaluation software (GE Life Science) to determine ka (association constant), kd (dissociation constant), and KD (equilibrium dissociation constant).

human 2Ig B7-H3 = biological target: T1, human 2Ig B7-H3 (Homo sapiens, UniProt Q5ZPR3); test: Biacore (SPR) binding kinetics, human 2Ig B7-H3; details: analyte Human 2IgB7-H3, antibody as immobilized ligand
T1 construct: purchased Acrobiosystems
T1 sequence (Q5ZPR3 29-316 isoform Q5ZPR3-2 limits assumed): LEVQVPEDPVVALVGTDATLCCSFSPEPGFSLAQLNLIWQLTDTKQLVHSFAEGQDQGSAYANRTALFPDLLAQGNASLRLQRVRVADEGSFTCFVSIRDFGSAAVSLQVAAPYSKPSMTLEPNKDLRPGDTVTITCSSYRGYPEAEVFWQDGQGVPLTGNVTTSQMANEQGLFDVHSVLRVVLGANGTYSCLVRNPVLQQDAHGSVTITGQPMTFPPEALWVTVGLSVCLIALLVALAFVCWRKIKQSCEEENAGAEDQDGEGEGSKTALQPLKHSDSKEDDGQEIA
Experimental: as §1, §2

human 4Ig B7-H3 = biological target: T2, human 4Ig B7-H3 (Homo sapiens, UniProt Q5ZPR3); test: Biacore (SPR) binding kinetics, human 4Ig B7-H3; details: analyte Human 4IgB7-H3, antibody as immobilized ligand
T2 construct: purchased Y-Biologics Inc
T2 sequence (Q5ZPR3 29-534): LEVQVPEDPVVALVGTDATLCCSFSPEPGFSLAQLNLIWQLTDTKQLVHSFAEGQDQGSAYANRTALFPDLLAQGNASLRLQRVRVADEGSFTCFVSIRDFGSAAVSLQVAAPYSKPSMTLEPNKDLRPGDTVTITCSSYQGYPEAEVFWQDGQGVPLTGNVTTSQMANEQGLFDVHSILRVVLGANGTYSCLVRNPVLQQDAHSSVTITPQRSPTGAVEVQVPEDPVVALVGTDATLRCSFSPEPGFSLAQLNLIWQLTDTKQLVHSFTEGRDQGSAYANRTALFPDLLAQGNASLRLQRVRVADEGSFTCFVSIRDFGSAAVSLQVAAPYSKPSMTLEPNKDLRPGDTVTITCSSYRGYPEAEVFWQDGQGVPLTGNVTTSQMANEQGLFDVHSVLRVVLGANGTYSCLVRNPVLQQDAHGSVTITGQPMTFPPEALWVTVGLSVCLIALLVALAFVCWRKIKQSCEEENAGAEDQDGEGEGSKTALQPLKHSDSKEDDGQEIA
Experimental: as §1, §2

mouse B7-H3 = biological target: T3, mouse B7-H3 (Mus musculus, UniProt Q8VE98); test: Biacore (SPR) binding kinetics, mouse B7-H3; details: analyte Mouse B7-H3, antibody as immobilized ligand
T3 construct: purchased Sino biological Inc
T3 sequence (Q8VE98 29-316): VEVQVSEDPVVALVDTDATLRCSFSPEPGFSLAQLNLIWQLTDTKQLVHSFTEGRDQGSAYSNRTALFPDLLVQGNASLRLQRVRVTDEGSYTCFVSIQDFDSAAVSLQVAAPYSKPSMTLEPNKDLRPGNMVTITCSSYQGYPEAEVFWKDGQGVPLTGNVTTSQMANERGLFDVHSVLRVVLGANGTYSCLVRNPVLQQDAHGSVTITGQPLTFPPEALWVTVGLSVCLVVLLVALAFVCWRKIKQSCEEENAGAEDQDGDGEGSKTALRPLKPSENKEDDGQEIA
Experimental: as §1, §2

B1: AB2.1 (antibody)
heavy: QVQLVESGAEVKKPGASVKLSCKASGYTFSSYWMHWVRQAPGQRLEWMGEINPGNGHTNYNEKFKSRVTITVDKSASTAYMELSSLRSEDTAVYYCVADPRRPKVPTALFVYWGQGTLVTVSSCSTKGPSVFPLAPSSKSTSGGTAALGCLVKDYFPEPVTVSWNSGALTSGVHTFPAVLQSSGLYSLSSVVTVPSSSLGTQTYICNVNHKPSNTKVDKKV[here human IgG1 Fc without letters]
light: DIQMTQSPSSVSASVGDRVTISCRASQGIGTWLAWYQQKPGKAPRLLIYAASSLDSGVPSRFSASGSGTDFTLTISSLQPEDFATYYCQQAINFPITFGQGTRLEIKRSVAAPSVFIFPPSDEQLKSGTASVVCLLNNFYPREAKVQWKVDNALQSGNSQESVTEQDSKDSTYSLSSTLTLSKADYEKHKVYACEVTHQGLSSPVTKSFNRGEC
Ka (cynomolgus monkey B7-H3): 480000 M⁻¹ s⁻¹ | Kd (cynomolgus monkey B7-H3): 0.000504 s⁻¹ | Ka (human 2Ig B7-H3): 217000 M⁻¹ s⁻¹ | Kd (human 2Ig B7-H3): 0.00469 s⁻¹ | Ka (human 4Ig B7-H3): 442000 M⁻¹ s⁻¹ | Kd (human 4Ig B7-H3): 0.00047 s⁻¹ | Ka (mouse B7-H3): 420000 M⁻¹ s⁻¹ | Kd (mouse B7-H3): 0.0178 s⁻¹
